The densities may have been worked out from excess volumes.
Test: xn = mol fraction of the nth substance listed
Settings: 101 kPa

CCC[NH3+].O=[N+]([O-])[O-] + CCCC[NH3+].O=[N+]([O-])[O-]
x1 = 0.5
Settings	mass density [kg/m3]
298.15 K	1126.6
303.15 K	1123.4
308.15 K	1120.4
318.15 K	1114.3
333.15 K	1105.4
338.15 K	1102.5
348.15 K	1096.7
353.15 K	1093.8

CC[NH3+].O=[N+]([O-])[O-] + CC[N+](CC)(CC)CC.O=[N+]([O-])[O-]
x2 = 0
Settings	mass density [kg/m3]
293.15 K	1215.6
298.15 K	1212.4
303.15 K	1209.3
308.15 K	1206.2
313.15 K	1203.1
318.15 K	1200.1
323.15 K	1197.1
328.15 K	1194.1
333.15 K	1191.2
343.15 K	1185.3
348.15 K	1182.4
353.15 K	1179.5

CC[NH3+].O=[N+]([O-])[O-] + CC[NH2+]CC.O=[N+]([O-])[O-]
x2 = 0
Settings	mass density [kg/m3]
293.15 K	1215.6
298.15 K	1212.4
303.15 K	1209.3
308.15 K	1206.2
313.15 K	1203.1
318.15 K	1200.1
328.15 K	1194.1
338.15 K	1188.2
348.15 K	1182.4
353.15 K	1179.5

CCCC[NH3+].O=[N+]([O-])[O-] + CC[NH3+].O=[N+]([O-])[O-]
mass density [kg/m3]
Settings	x2 = 0.25	x2 = 0.5	x2 = 0.75
293.15 K	1129.4	1154	1180.5
298.15 K	1126.3	1150.9	1177.4
303.15 K	1123.1	1147.8	–
308.15 K	–	1144.8	1171.2
313.15 K	1117	1141.8	1168.2
318.15 K	1113.9	1138.8	1165.2
323.15 K	–	1135.9	1162.2
328.15 K	1107.9	1132.9	1159.3
333.15 K	–	1130	1156.3
338.15 K	–	1127.1	–
343.15 K	–	1124.3	1150.6
348.15 K	1096.2	1121.4	1147.7
353.15 K	–	–	1144.8

CCC[NH3+].O=[N+]([O-])[O-] + CC[NH3+].O=[N+]([O-])[O-]
x2 = 0.5
Settings	mass density [kg/m3]
298.15 K	1178.5
308.15 K	1172.4
313.15 K	1169.3
323.15 K	1163.4
328.15 K	1160.4
333.15 K	1157.5
338.15 K	1154.6
343.15 K	1151.7
348.15 K	1148.8

CC[N+](CC)(CC)CC.O=[N+]([O-])[O-] + CC[NH3+].O=[N+]([O-])[O-]
mass density [kg/m3]
Settings	x1 = 0.0501	x1 = 0.1	x1 = 0.15	x1 = 0.2001	x1 = 0.2567	x1 = 0.2995	x1 = 0.35
293.15 K	1198.3	1184	–	1160.6	1150.1	1142.8	1135.9
298.15 K	1195.3	1180.9	1168.8	1157.7	1147.2	1139.9	1133.1
303.15 K	–	1178	–	1154.7	1144.3	1137	–
308.15 K	1189.2	1175	1162.9	–	1141.5	1134.2	1127.4
313.15 K	1186.2	–	1160	1149	1138.7	1131.4	1124.6
318.15 K	1183.3	1169.2	1157.2	1146.2	1135.9	–	1121.8
323.15 K	1180.3	1166.3	–	1143.4	1133.1	1125.9	1119.1
328.15 K	1177.4	1163.5	1151.5	–	–	1123.2	–
333.15 K	1174.6	1160.6	–	1137.9	1127.7	1120.5	1113.7
338.15 K	1171.7	1157.8	1146	1135.2	1125	1117.8	1111
343.15 K	1168.8	1155	–	1132.5	1122.3	1115.1	1108.4
348.15 K	1166	1152.2	1140.5	–	1119.6	1112.5	–
353.15 K	1163.2	–	1137.8	1127.1	1117	1109.8	–

CC[NH+](CC)CC.O=[N+]([O-])[O-] + CC[NH3+].O=[N+]([O-])[O-]
Settings	mass density [kg/m3]
293.15 K, x1 = 0.0499	1200.8
293.15 K, x1 = 0.0999	1188.1
293.15 K, x1 = 0.3995	1135.1
293.15 K, x1 = 0.4472	1128.4
293.15 K, x1 = 0.5003	1122.4
293.15 K, x1 = 0.5485	1116.8
298.15 K, x1 = 0.0499	1197.7
298.15 K, x1 = 0.0999	1185
298.15 K, x1 = 0.1997	1165
298.15 K, x1 = 0.25	1155.3
298.15 K, x1 = 0.2993	1142.2
298.15 K, x1 = 0.3475	1139.5
298.15 K, x1 = 0.3995	1132.1
298.15 K, x1 = 0.4472	1125.3
298.15 K, x1 = 0.5003	1119.4
298.15 K, x1 = 0.5485	1113.7
303.15 K, x1 = 0.0499	1194.6
303.15 K, x1 = 0.0999	1182
303.15 K, x1 = 0.149	1169.4
303.15 K, x1 = 0.1997	1161.9
303.15 K, x1 = 0.25	1152.3
303.15 K, x1 = 0.2993	1139.2
303.15 K, x1 = 0.3995	1129.1
303.15 K, x1 = 0.4472	1122.3
303.15 K, x1 = 0.5003	1116.4
303.15 K, x1 = 0.5485	1110.7
308.15 K, x1 = 0.0499	1191.6
308.15 K, x1 = 0.0999	1178.9
308.15 K, x1 = 0.149	1166.4
308.15 K, x1 = 0.1997	1158.9
308.15 K, x1 = 0.25	1149.3
308.15 K, x1 = 0.2993	1136.2
308.15 K, x1 = 0.3475	1133.6
308.15 K, x1 = 0.3995	1126.1
308.15 K, x1 = 0.4472	1119.4
308.15 K, x1 = 0.5003	1113.4
308.15 K, x1 = 0.5485	1107.7
313.15 K, x1 = 0.0499	1188.6
313.15 K, x1 = 0.0999	1176
313.15 K, x1 = 0.149	1163.4
313.15 K, x1 = 0.1997	1156
313.15 K, x1 = 0.25	1146.4
313.15 K, x1 = 0.2993	1133.3
313.15 K, x1 = 0.3475	1130.6
313.15 K, x1 = 0.5003	1110.5
313.15 K, x1 = 0.5485	1104.8
318.15 K, x1 = 0.0499	1185.6
318.15 K, x1 = 0.0999	1173
318.15 K, x1 = 0.149	1160.4
318.15 K, x1 = 0.1997	1153
318.15 K, x1 = 0.25	1143.4
318.15 K, x1 = 0.2993	1130.4
318.15 K, x1 = 0.3475	1127.7
318.15 K, x1 = 0.3995	1120.2
318.15 K, x1 = 0.4472	1113.5
318.15 K, x1 = 0.5003	1107.5
318.15 K, x1 = 0.5485	1101.8
323.15 K, x1 = 0.0499	1182.6
323.15 K, x1 = 0.149	1157.5
323.15 K, x1 = 0.1997	1150.1
323.15 K, x1 = 0.25	1140.5
323.15 K, x1 = 0.2993	1127.5
323.15 K, x1 = 0.3475	1124.8
323.15 K, x1 = 0.4472	1110.6
323.15 K, x1 = 0.5485	1098.9
328.15 K, x1 = 0.0499	1179.7
328.15 K, x1 = 0.0999	1167.1
328.15 K, x1 = 0.1997	1147.2
328.15 K, x1 = 0.25	1137.7
328.15 K, x1 = 0.2993	1124.6
328.15 K, x1 = 0.3475	1122
328.15 K, x1 = 0.4472	1107.7
333.15 K, x1 = 0.0499	1176.8
333.15 K, x1 = 0.0999	1164.3
333.15 K, x1 = 0.149	1151.7
333.15 K, x1 = 0.25	1134.8
333.15 K, x1 = 0.2993	1121.8
333.15 K, x1 = 0.3475	1119.1
333.15 K, x1 = 0.3995	1111.6
333.15 K, x1 = 0.4472	1104.9
338.15 K, x1 = 0.0499	1173.9
338.15 K, x1 = 0.0999	1161.4
338.15 K, x1 = 0.149	1148.9
338.15 K, x1 = 0.1997	1141.5
343.15 K, x1 = 0.0999	1158.5
343.15 K, x1 = 0.149	1146
348.15 K, x1 = 0.0499	1168.2
348.15 K, x1 = 0.149	1143.2
353.15 K, x1 = 0.0999	1152.9
353.15 K, x1 = 0.149	1140.4

CC[NH2+]CC.O=[N+]([O-])[O-] + CC[NH3+].O=[N+]([O-])[O-]
mass density [kg/m3]
Settings	x1 = 0.0499	x1 = 0.0998	x1 = 0.1499	x1 = 0.1999	x1 = 0.2501	x1 = 0.2998	x1 = 0.3501
293.15 K	1206.2	–	1189.4	1182.1	1174	1169.1	–
298.15 K	1203.1	1195	1186.3	1179	–	1166	1157.9
303.15 K	1200	1191.9	1183.2	1176	1167.8	1162.9	1154.8
308.15 K	–	1188.8	1180.2	1172.9	1164.8	1159.9	1151.8
313.15 K	1193.8	1185.8	1177.2	–	1161.8	1156.9	–
318.15 K	1190.8	–	–	1166.9	1158.8	–	1145.8
323.15 K	1187.8	1179.8	–	–	1155.9	1151	1142.9
328.15 K	1184.9	–	1168.3	1161.1	1152.9	–	1140
333.15 K	1181.9	1174	1165.4	1158.2	1150	1145.2	1137.1
338.15 K	1179	1171.1	1162.5	1155.3	1147.1	–	1134.2
343.15 K	–	1168.2	–	1152.4	1144.3	1139.5	1131.3
348.15 K	–	1165.3	1156.7	1149.6	1141.5	1136.6	1128.4
353.15 K	1170.4	–	–	–	1138.6	1133.8	–

CC[NH3+].O=[N+]([O-])[O-] + CC[NH+](CC)CC.O=[N+]([O-])[O-]
x2 = 0
Settings	mass density [kg/m3]
303.15 K	1209.3
308.15 K	1206.2
318.15 K	1200.1
328.15 K	1194.1
333.15 K	1191.2
338.15 K	1188.2
343.15 K	1185.3
348.15 K	1182.4
353.15 K	1179.5

Reference: a compilation of properties of binary mixtures (doi:10.1021/acs.jpcb.5b11900)
